Measurements reported in publication PMC6212790.
The other results are listed elsewhere or left out. At the low end of the ranking the order means little.

biological target: T1, GST-Rok-C97-191 (UniProt O34857); assay: protein binding microarray; conditions: Rok is a gene silencer of Bacillus subtilis; high values mean tight binding; most listed sequences are background and not binding sites; double strand, one strand shown;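 note: rank score from −0.5 (least bound) to 0.5 (best bound)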
T1 sequence: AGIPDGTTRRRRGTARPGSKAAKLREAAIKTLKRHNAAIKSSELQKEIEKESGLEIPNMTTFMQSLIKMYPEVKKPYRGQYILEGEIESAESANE

Sequence | binding signal [E-score]
AACGTCAG | -0.21
CTAACACA | -0.0411
CGAAAACG | -0.121
AGGCGCAG | -0.195
CGTTGGAG | -0.19
CCGAAGCA | 0.0191
ATCTTTGG | -0.074
ACATATCG | 0.182
CCTAAGAG | -0.054
CCATTCAC | -0.0403
CGGTTTGA | -0.0671
GCAGTTTA | 0.113
GAGCCCTC | -0.274
AATCGGCG | -0.0943
AGTCAACG | -0.129
ACCTTTCT | 0.103
GTACGCTA | 0.138
ATCCATTG | -0.0528
AGCGTGGG | -0.118
CCAAAACG | -0.249
CTAGGAGC | 0.201
CACCGCCG | -0.124
ATAGGTAA | 0.225
AACGCGAG | -0.0251
CAACAAGA | -0.163

Sequence | binding signal [E-score]
AAGGAACT | -0.0515
ATTTTCCC | -0.00582
AGATTCTG | 0.199
CGAAATGC | -0.0626
AATGCACC | -0.124
CAGGACTA | -0.0749
CCATGACG | -0.0758
CATGACAG | -0.0741
ACCGCGGG | -0.144
AAGTAGTA | 0.358
GTTAGGGA | -0.112
ATTGCGCA | 0.00228
AGTGGACG | -0.198
TCTATTCA | 0.0688
CCGTATGA | -0.05
CGTCTATC | -0.0931
AAGGACGG | -0.164
CGAGCTGA | -0.215
ATTTGTCG | 0.134
TCCCAGCA | -0.0663
CGAGGGAC | -0.305
ATGGGAGC | -0.204
CCAAGGTA | 0.0964
AGCTGGAC | -0.239
CTTTCTAC | 0.447

Sequence | binding signal [E-score]
ACATCTGC | 0.135
CACGCATG | -0.16
AAAGAAAC | -0.0427
CCCATCCC | -0.206
CTAGGGGC | -0.373
CCACTCGA | -0.107
CCAGTAGG | 0.0649
AGCCTCTA | 0.0171
AGCTGCTG | -0.0925
GACAGATA | 0.153
CAAAATGA | 0.0999
AATATCAA | 0.244
ACTGCCGA | -0.178
CCGCCCCC | -0.236
CCTGGTCA | -0.102
CGGTTTCA | -0.131
CAACTGCG | -0.192
CACCTCGC | -0.148
ATCGGCAA | -0.182
TCGCACCA | -0.122
CACAGCGA | -0.129
CTCCTCGA | -0.0979
TAGTCATA | 0.148
CCTACAGA | 0.064
GTCCCTGA | -0.188

Sequence | binding signal [E-score]
TTATGGAA | 0.0655
ACGCAGAA | -0.108
TCGTTAGA | 0.00302
CCCTTGAC | -0.132
ATGACGGA | 0.0909
GGATGGCC | -0.372
ACGTGCCA | 0.00179
CTGGCGCA | -0.0881
GCTCTTAC | -0.0333
AAGTAATC | 0.0184
GATATGCA | 0.136
AGCGTCAA | -0.0674
CGGGGTGA | -0.0577
TACCGGAA | -0.0058
CGCAGCTC | -0.193
CTAGCTGA | 0.0625
AGTCGTGC | 0.0618
TGGATCAA | -0.0679
GAGACACA | -0.125
AAATAGGG | -0.0549
TAATATAA | 0.309
GGAAGTAC | -0.0337
AGGTCTTA | -0.23
ATCTCGCC | 0.0971
AAATACGT | 0.343

Sequence | binding signal [E-score]
AGCCAAAT | 0.0358
ACTATTCA | 0.221
CTCGGTGA | -0.118
TATCATGA | 0.19
GCGGCGTA | -0.0352
GGGCAAAA | 0.0699
CCGGTATC | 0.181
AAACCGCA | -0.108
AAATATTC | 0.219
ACGTCCGG | -0.0313
AAGACTAA | 0.132
GAGCCATC | -0.0365
ACTCTCGC | -0.0559
TATTCTGA | -0.0202
ATCCAATG | 0.00844
CGTCGCAA | -0.128
CCGCTTGA | -0.0994
GCGGAGGA | -0.229
CCACGCAG | -0.198
AATACACG | 0.106
ACAGGTGG | -0.244
AGTCAGAT | 0.0278
CTTCACAC | -0.0247
AATCATTG | 0.143
AAGCGTCC | -0.231

Sequence | binding signal [E-score]
TCCTTACA | -0.0881
CGTGTCTC | -0.0102
GCCTTCCC | -0.323
CGCTACGA | 0.0242
AAGAATCG | 0.0833
GGGAGCTA | -0.155
GGACCAAC | -0.163
CACTGCTA | 0.0112
CATACTTC | 0.174
CAGTCTCG | -0.194
ATGTCAAT | 0.0306
TGGTGAAA | -0.095
CAGGTGCG | -0.233
TCGATTAA | 0.125
GCGAATAC | 0.0221
AGACACGC | 0.00429
CGCAACGC | -0.111
AATTATGC | 0.215
GGATTCAA | -0.0564
GATGGCGA | 0.0644
CGATTTAC | 0.209
TGAAGACA | -0.146
TACCCATA | 0.234
CACTATCG | 0.215
AGAGACCA | 0.00222

Sequence | binding signal [E-score]
GGATTGAA | -0.0309
TGCCGTAA | -0.0714
CCGTCTCC | -0.209
CCCCTGTC | -0.302
CGCCCGTC | -0.275
CTTTACTA | 0.0223
ATGCATTC | 0.0561
GCTTTAAA | 0.00559
GAGGGGAA | -0.255
GAAATACC | 0.289
CGGTTCCA | 0.0554
AAGTTATT | 0.259
GATCGCGC | -0.0683
GTGTTATA | 0.133
TACACGGA | -0.139
AAGACCGG | -0.0043
GGCACCTA | -0.0477
CCGAAAGC | -0.213
ATGATCGC | 0.142
AGCCGATA | 0.00367
TACGTTAA | 0.102
ACATCAGT | 0.203
CCGGGACC | -0.414
CAGGGGGC | -0.372
ACCCGTAT | -0.0353

Sequence | binding signal [E-score]
CTCATGCC | -0.211
AACATTTA | 0.0536
CTCTACAG | -0.111
CCCACGAC | -0.32
CACTGAAG | -0.17
ACCCTCCT | -0.148
CCTGACGA | -0.133
ATTAGCAA | 0.0253
AAGAATCT | 0.0962
CCCCAGCC | -0.272
AGTGTATA | 0.294
ACGTTCCT | 0.0588
CGCAAATC | 0.159
CGGACCTA | -0.165
GGCAGTAA | 0.236
ATACAGTC | 0.158
CTTAAAGA | -0.126
GTCGACCA | -0.198
AGGCTCTA | -0.0626
AAACGCCG | -0.246
AAGACACG | -0.0621
CAGTACCC | -0.135
AAGCCAGC | -0.0922
GTTAGTGA | 0.0336
TTACACAA | 0.109

Sequence | binding signal [E-score]
GCGGTAAC | -0.0554
CAACATAA | 0.0943
ACGACTCA | -0.0452
ATTTGGAG | -0.192
CCGGTCAA | 0.0434
ATTTCCTC | -0.0982
GGCGACAC | -0.0519
GTTGTAGA | 0.283
CTCCGGAC | -0.132
ACTGGGAC | -0.142
GGGCGATA | -0.137
GAGACGCA | -0.281
TGCGAGCA | -0.0842
AAGGTTTA | 0.191
ATGTGCTC | 0.0251
CTAGTGCC | 0.0424
ATTCCCTA | 0.0618
GTTGACCA | -0.0968
ATTGGGTG | -0.0866
AGAGTGCT | 0.00259
AACAACTG | -0.0632
GTAGTTTA | 0.423
CCCAAGGG | -0.194
ATTCGTGA | 0.0913
CAGTCCCA | -0.104

Sequence | binding signal [E-score]
GCGGCACA | -0.157
ATGCGAGC | -0.238
CCTCACCG | -0.239
GCCGCGGC | -0.285
CATATGCA | 0.0211
AAGGCTAC | -0.055
AGTGATTA | 0.204
AGCTGCAG | -0.0871
TACGCATA | -0.076
TCTGTTAA | 0.00384
CAAAATAG | 0.333
ATTCGCTA | 0.173
GAAGTGAA | -0.203
ATGTTAAG | 0.104
AGGTCACC | -0.253
AATATAAC | 0.205
ATTACAAC | 0.206
GCCCCTGA | -0.293
ATTAATCC | 0.223
GGGCTCTA | 0.0653
ATCCCGAA | 0.0949
CGTGTTAC | 0.0253
TATCTTAA | 0.145
CTTTAGCC | 0.0163
AAGTTGGT | -0.0226

Sequence | binding signal [E-score]
CGCCCACA | -0.101
CCCTGAGC | -0.358
CATAGGCA | 0.0753
CCGTCCAA | -0.13
CAGAAGAG | -0.164
CAGGTCGG | -0.368
CATAGATA | 0.297
AGACCCAG | -0.168
AAATCCTG | -0.0187
CAGCTTAG | -0.171
AACGCTGT | -0.0929
CACATTGC | -0.0219
AAGAAAAT | 0.188
AACCGGGC | -0.238
CAAACAAC | 0.00245
CATAGGCC | -0.293
CACATGCA | 0.206
GAGCCCCC | -0.339
CGGTACAA | 0.112
CCGTAACG | -0.144
ATTGCCCA | -0.00433
ATGGTTGG | -0.146
CAAAGATA | 0.147
CGCCGAGC | -0.176
AATTGACC | 0.103

Sequence | binding signal [E-score]
GTTGTCAA | -0.0894
ATGCTTAA | -0.0221
ATGATATA | 0.386
CCGTGTCG | -0.314
CTTCTTGA | -0.0372
GCTAGCCA | 0.153
ATGTTGGA | -0.0892
CTCTCAAC | 0.0668
ACGTATGG | 0.00685
ACGAAAAC | -0.0839
GCACGAAA | 0.0521
TCCCCGCA | -0.314
TAAATCTA | 0.364
TCCTCCGA | -0.249
AAACCCCC | -0.222
AGGAGTGG | -0.0863
GGCTCTAC | -0.0584
AAGTATGC | 0.161
AGGCGCCA | -0.0561
AATTAAAC | 0.0632
TAAATTAA | 0.267
ACCCCAGC | -0.0894
ACGGTAGT | 0.408
CTGCTACA | 0.16
GACTGGAA | 0.0803

Sequence | binding signal [E-score]
GAAGCTCA | 0.0286
GCCATTCC | -0.156
GAAAGAAA | 0.0596
GCCAAAGA | -0.207
TGCTAGCA | 0.027
CATACCTC | -0.0434
AGCGGACG | 0.000189
TAACAAGA | -0.0405
CGGAATCA | -0.045
TATTGTAA | 0.23
CACAAAAA | 0.102
AAAGTTTG | -0.0186
ACCGTGCC | -0.132
ACCGTGCG | -0.00449
AACGGTCT | -0.0159
CCTGGTGA | -0.248
AGTTACAC | 0.178
CAGACAAC | -0.0635
AATGAGAC | -0.0863
ACGGCCTA | -0.212
GACTCAAC | -0.156
CGGGTCAC | -0.145
ACAGTAAC | 0.189
CCCCTTCG | -0.38
AGGGCGTG | -0.216

Sequence | binding signal [E-score]
CGCCTCAC | -0.178
ACTATGTG | 0.0615
ACACTCTC | -0.0287
CAAGTAGG | 0.135
CTCGCAGA | -0.119
GAAACTGC | -0.0234
GATCTGGC | -0.0869
CAGTACTC | 0.00214
AGCTCGAG | 0.0624
TAGGTGAA | 0.0618
ATGGGTTC | 0.00727
ATACCGAC | -0.0441
TCGAGCAA | -0.0104
ACGATGGA | 0.117
AGGAATGG | -0.0993
CCTTGACA | -0.183
GTACATAC | 0.172
TGTGAACA | -0.075
CACCCTTA | -0.145
